Data reported in the supplement of paper PMC8728848.
Some of the results follow.

How the values were obtained:
Assay in all cases: glycan array binding signal (z-score within array); higher = stronger binding
Settings in all cases: glycan notation: IUPAC condensed, linker removed
[1] = molecular target: Fuc(a1-2)[Gal(a1-3)]Gal(b1-4)[Fuc(a1-3)]GlcNAc(b1-3)GalNAc
Method in brief: (§1)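 Glycan array binding is given as a within-array Z-score, which can be read as non-binding when negative. The arrays, 3228 of them, came from the Consortium for Functional Glycomics database and were retained only where the protein sequence was available. Z-scores were averaged across arrays of the same protein sequence at different concentrations or buffers and across linkers.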

[2] = molecular target: Fuc(a1-2)[Gal(a1-4)]Gal(b1-4)GlcNAc
Method in brief: as §1

[3] = molecular target: Fuc(a1-2)[GalNAc(a1-3)]Gal
Method in brief: as §1

[4] = molecular target: Fuc(a1-2)[GalNAc(a1-3)]Gal(b1-3)GalNAc(a1-3)[Fuc(a1-2)]Gal(b1-4)GlcNAc
Method in brief: as §1

[5] = molecular target: Fuc(a1-2)[GalNAc(a1-3)]Gal(b1-3)GalNAc(b1-3)Gal(a1-4)Gal(b1-4)Glc
Method in brief: as §1

[6] = molecular target: Fuc(a1-2)[GalNAc(a1-3)]Gal(b1-3)GlcNAc
Method in brief: as §1

[7] = molecular target: Fuc(a1-2)[GalNAc(a1-3)]Gal(b1-3)GlcNAc(b1-2)Man(a1-3)[Fuc(a1-2)[GalNAc(a1-3)]Gal(b1-3)GlcNAc(b1-2)Man(a1-6)]Man(b1-4)GlcNAc(b1-4)GlcNAc
Method in brief: as §1

[8] = molecular target: Fuc(a1-2)[GalNAc(a1-3)]Gal(b1-3)GlcNAc(b1-2)Man(a1-3)[Fuc(a1-2)[GalNAc(a1-3)]Gal(b1-3)GlcNAc(b1-2)Man(a1-6)]Man(b1-4)GlcNAc(b1-4)[Fuc(a1-6)]GlcNAc
Method in brief: as §1

[9] = molecular target: Fuc(a1-2)[GalNAc(a1-3)]Gal(b1-3)GlcNAc(b1-3)GalNAc
Method in brief: as §1

[10] = molecular target: Fuc(a1-2)[GalNAc(a1-3)]Gal(b1-3)GlcNAc(b1-6)GalNAc
Method in brief: as §1

[11] = molecular target: Fuc(a1-2)[GalNAc(a1-3)]Gal(b1-4)Glc
Method in brief: as §1

[12] = molecular target: Fuc(a1-2)[GalNAc(a1-3)]Gal(b1-4)GlcNAc
Method in brief: as §1

[13] = molecular target: Fuc(a1-2)[GalNAc(a1-3)]Gal(b1-4)GlcNAc(b1-2)Man
Method in brief: as §1

[14] = molecular target: Fuc(a1-2)[GalNAc(a1-3)]Gal(b1-4)GlcNAc(b1-2)Man(a1-3)[Fuc(a1-2)[GalNAc(a1-3)]Gal(b1-4)GlcNAc(b1-2)Man(a1-6)]Man(b1-4)GlcNAc(b1-4)GlcNAc
Method in brief: as §1

[15] = molecular target: Fuc(a1-2)[GalNAc(a1-3)]Gal(b1-4)GlcNAc(b1-2)Man(a1-3)[Fuc(a1-2)[GalNAc(a1-3)]Gal(b1-4)GlcNAc(b1-2)Man(a1-6)]Man(b1-4)GlcNAc(b1-4)[Fuc(a1-6)]GlcNAc
Method in brief: as §1

[16] = molecular target: Fuc(a1-2)[GalNAc(a1-3)]Gal(b1-4)GlcNAc(b1-3)Gal(b1-4)GlcNAc
Method in brief: as §1

[17] = molecular target: Fuc(a1-2)[GalNAc(a1-3)]Gal(b1-4)GlcNAc(b1-3)Gal(b1-4)GlcNAc(b1-3)Gal(b1-4)GlcNAc
Method in brief: as §1

[18] = molecular target: Fuc(a1-2)[GalNAc(a1-3)]Gal(b1-4)GlcNAc(b1-3)GalNAc
Method in brief: as §1

[19] = molecular target: Fuc(a1-2)[GalNAc(a1-3)]Gal(b1-4)GlcNAc(b1-3)[Fuc(a1-2)[GalNAc(a1-3)]Gal(b1-4)GlcNAc(b1-6)]GalNAc
Method in brief: as §1

[20] = molecular target: Fuc(a1-2)[GalNAc(a1-3)]Gal(b1-4)GlcNAc(b1-6)GalNAc
Method in brief: as §1

[21] = molecular target: Fuc(a1-2)[GalNAc(a1-3)]Gal(b1-4)[Fuc(a1-3)]GlcNAc
Method in brief: as §1

[22] = molecular target: Fuc(a1-2)[GalNAc(a1-3)]Gal(b1-4)[Fuc(a1-3)]GlcNAc(b1-3)GalNAc
Method in brief: as §1

[23] = molecular target: Fuc(a1-2)[GalNAc(a1-4)]Gal(b1-4)GlcNAc
Method in brief: as §1

[24] = molecular target: Fuc(a1-2)[GalNAc(b1-3)]Gal
Method in brief: as §1

Fuc(a1-3)GlcNAc = molecular target: Fuc(a1-3)GlcNAc
Method in brief: as §1

[25] = molecular target: Fuc(a1-3)[Gal(b1-4)]Glc6S
Method in brief: as §1

[26] = molecular target: Fuc(a1-3)[Gal(b1-4)]GlcNAc
Method in brief: as §1

[27] = molecular target: Fuc(a1-3)[Gal(b1-4)]GlcNAc(b1-2)Man
Method in brief: as §1

[28] = molecular target: Fuc(a1-3)[Gal(b1-4)]GlcNAc(b1-2)Man(a1-3)[Fuc(a1-3)[Gal(b1-4)]GlcNAc(b1-2)Man(a1-6)]Man(b1-4)GlcNAc(b1-4)GlcNAc
Method in brief: as §1

[29] = molecular target: Fuc(a1-3)[Gal(b1-4)]GlcNAc(b1-2)Man(a1-3)[Fuc(a1-3)[Gal(b1-4)]GlcNAc(b1-2)Man(a1-6)]Man(b1-4)GlcNAc(b1-4)[Fuc(a1-6)]GlcNAc
Method in brief: as §1

[30] = molecular target: Fuc(a1-3)[Gal(b1-4)]GlcNAc(b1-3)Gal(b1-3)[Fuc(a1-4)]GlcNAc
Method in brief: as §1

[31] = molecular target: Fuc(a1-3)[Gal(b1-4)]GlcNAc(b1-3)Gal(b1-4)[Fuc(a1-3)]GlcNAc
Method in brief: as §1

[32] = molecular target: Fuc(a1-3)[Gal(b1-4)]GlcNAc(b1-3)Gal(b1-4)[Fuc(a1-3)]GlcNAc(b1-3)Gal(b1-4)[Fuc(a1-3)]GlcNAc
Method in brief: as §1

[33] = molecular target: Fuc(a1-3)[Gal(b1-4)]GlcNAc(b1-3)GalNAc
Method in brief: as §1

[34] = molecular target: Fuc(a1-3)[Gal(b1-4)]GlcNAc(b1-6)GalNAc
Method in brief: as §1

[35] = molecular target: Fuc(a1-3)[Gal(b1-4)]GlcNAc(b1-6)[Gal(b1-3)GlcNAc(b1-3)]Gal(b1-4)Glc
Method in brief: as §1

[36] = molecular target: Fuc(a1-3)[Gal(b1-4)]GlcNAc6S
Method in brief: as §1

[37] = molecular target: Fuc(a1-3)[Gal3S(b1-4)]Glc
Method in brief: as §1

B1: Als3-N (Candida albicans) (protein)
chain: KTITGVFNSFNSLTWSNAATYNYKGPGTPTWNAVLGWSLDGTSASPGDTFTLNMPCVFKFTTSQTSVDLTAHGVKYATCQFQAGEEFMTFSTLTCTVSNTLTPSIKALGTVTLPLAFNVGGTGSSVDLEDSKCFTAGTNTVTFNDGGKKISINVDFERSNVDPKGYLTDSRVIPSLNKVSTLFVAPQCANGYTSGTMGFANTYGDVQIDCSNIHVGITKGLNDWNYPVSSESFSYTKTCSSNGIFITYKNVPAGYRPFVDAYISATDVNSYTLSYANEYTCAGGYWQRAPFTLRWTGYRNSDAGSNGIVIVATTRTVTDSTTAVTTLPFDPNRDKTKTIEILKPIPTTTITTSYVGVTTSYLTKTAPIGETATVIVDIPYHTTTTVTSKWTGTITSTTTHTNPTDSIDTVIVQVP
Question: For B1, which “glycan array binding signal (z-score)” value [1] is on record?
Answer: 0.028

Question: And the “glycan array binding signal (z-score)” value [2]?
Answer: -0.286

Question: And the “glycan array binding signal (z-score)” value [3]?
Answer: -0.231

Question: What about the “glycan array binding signal (z-score)” value [4] of the same binder?
Answer: -0.255

Question: And the “glycan array binding signal (z-score)” value [5]?
Answer: -0.14

Question: What about the “glycan array binding signal (z-score)” value [6] of the same binder?
Answer: -0.104

Question: And the “glycan array binding signal (z-score)” value [7]?
Answer: -0.19

Question: And the “glycan array binding signal (z-score)” value [8]?
Answer: -0.194

Question: What about the “glycan array binding signal (z-score)” value [9] of the same binder?
Answer: 0.137

Question: And the “glycan array binding signal (z-score)” value [10]?
Answer: -0.223

Question: And the “glycan array binding signal (z-score)” value [11]?
Answer: 0.062

Question: And the “glycan array binding signal (z-score)” value [12]?
Answer: -0.204

Question: And the “glycan array binding signal (z-score)” value [13]?
Answer: -0.268

Question: What about the “glycan array binding signal (z-score)” value [14] of the same binder?
Answer: -0.334

Question: And the “glycan array binding signal (z-score)” value [15]?
Answer: -0.23

Question: What about the “glycan array binding signal (z-score)” value [16] of the same binder?
Answer: -0.109

Question: What about the “glycan array binding signal (z-score)” value [17] of the same binder?
Answer: 0.129

Question: What about the “glycan array binding signal (z-score)” value [18] of the same binder?
Answer: -0.064

Question: And the “glycan array binding signal (z-score)” value [19]?
Answer: -0.323

Question: What about the “glycan array binding signal (z-score)” value [20] of the same binder?
Answer: -0.219

Question: And the “glycan array binding signal (z-score)” value [21]?
Answer: 0.042

Question: And the “glycan array binding signal (z-score)” value [22]?
Answer: 0.87

Question: What about the “glycan array binding signal (z-score)” value [23] of the same binder?
Answer: -0.308

Question: And the “glycan array binding signal (z-score)” value [24]?
Answer: -0.257

Question: What about the “glycan array binding signal (z-score)” value (Fuc(a1-3)GlcNAc) of the same binder?
Answer: -0.349

Question: And the “glycan array binding signal (z-score)” value [25]?
Answer: 0.122

Question: And the “glycan array binding signal (z-score)” value [26]?
Answer: -0.254

Question: What about the “glycan array binding signal (z-score)” value [27] of the same binder?
Answer: -0.272

Question: And the “glycan array binding signal (z-score)” value [28]?
Answer: -0.094

Question: And the “glycan array binding signal (z-score)” value [29]?
Answer: 0.273

Question: And the “glycan array binding signal (z-score)” value [30]?
Answer: -0.069

Question: What about the “glycan array binding signal (z-score)” value [31] of the same binder?
Answer: -0.034

Question: And the “glycan array binding signal (z-score)” value [32]?
Answer: -0.152

Question: And the “glycan array binding signal (z-score)” value [33]?
Answer: 0.226

Question: What about the “glycan array binding signal (z-score)” value [34] of the same binder?
Answer: 0.176

Question: And the “glycan array binding signal (z-score)” value [35]?
Answer: -0.325

Question: And the “glycan array binding signal (z-score)” value [36]?
Answer: 0.216

Question: What about the “glycan array binding signal (z-score)” value [37] of the same binder?
Answer: -0.001
